# PubChem BioAssay (NCATS)
# The shares of active, inactive and inconclusive entries below differ from those in the screen. For part of these data: No potency is given beside an inconclusive call; the fits are too rough. Activity calls are given as the source filed them. Unless noted, calls come from the whole dose curve; as a rule, active = well fitted curve in either direction with a large enough effect (not every such curve was filed as active); inconclusive = small, poorly fitted or top-dose-only effect, or another doubt; inactive = flat fitted curve, though single readings scatter.
# System: not listed separately
# Assay: AP1 Signaling Pathway (AID 357);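 note: ME-180 reporter cells stimulated with EGF at its EC50 level; top concentration of the series differs between compounds; % is set by controls: 0 for no effect and ±100 for the full control effect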
# Settings: ME-180 AP-1-bla reporter, EGF-induced, beta-lactamase ratio, 5 h; at 7.69 µM (top of the series) unless noted
# In short: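 Modulation of EGF-driven AP-1 transcription was assessed with a beta-lactamase reporter in ME-180 cells. Compound and EC50 EGF were co-incubated 5 hours at 37 °C before 2.5-hour CCF4 loading at room temperature and dual-emission reading.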
# Tags give direction and shape of the fitted curve.
row,Compound,"activity change, negative = inhibition"
1,O=c1cnc2cnc(Nc3ccccc3)nc2n1Cc1cccs1,inconclusive: -127% [inhibitor]
2,COc1ccc(-c2nc3cnc(Nc4ccccc4)nc3n(C[C@H]3CCCO3)c2=O)cc1,inactive: 26.1%
3,Cn1cc(-c2nc3cnc(Oc4cccc(Cl)c4)nc3n(C3CC3)c2=O)c2ccccc21,inconclusive: 36.2% [activator]
4,CN(C)c1ncc2nc(-c3cc(F)cc(F)c3)c(=O)n(Cc3ccc(F)cc3)c2n1,inconclusive: 99% [activator]
5,Cc1cccc(CNc2ccnc(-c3cccc(C#N)c3)n2)c1,inconclusive: -87.1% [inhibitor]
6,COc1ccc2[nH]cc(CCNc3nc(-c4ccc(N(C)C)cc4)nc4ccccc34)c2c1,inconclusive: -108% [inhibitor]
7,c1cncc(CNc2ncnc3ccc(-c4ccoc4)cc23)c1,inconclusive: -38.1% [inhibitor]
8,O=c1c(-c2ccccc2)nc2cnc(N3CCOCC3)nc2n1C[C@H]1CCCO1,inactive: 17%

# System: not listed separately
# Assay: NFAT Signaling Pathway (AID 444);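 note: carbachol stimulus at about its EC50 of 1 µM final; % is set by controls: 0 for no effect and ±100 for the full control effect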
# Settings: Jurkat NFAT-bla M1, carbachol, beta-lactamase ratio, 5 h; at 7.69 µM (top of the series) unless noted
# In short: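 Jurkat cells carrying an NFAT-driven β-lactamase reporter and co-transfected muscarinic M1 receptor were treated with compound plus carbachol (1 uM final, an EC50 level) for 5 h at 37 °C. CCF4 loading followed for 1 h at RT; 460/530 nm ratio gave %activity.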
row,Compound,"activity change, negative = inhibition"
1,O=c1cnc2cnc(Nc3ccccc3)nc2n1Cc1cccs1,inconclusive: -123% [inhibitor]
2,Fc1ccc(Nc2ncncc2-c2ccccc2C(F)(F)F)cc1,inconclusive: 45.9% [activator]
3,COc1ccc(-c2nc3cnc(Nc4ccccc4)nc3n(C[C@H]3CCCO3)c2=O)cc1,inconclusive: 41% [activator]
4,CN(C)c1ncc2nc(-c3cc(F)cc(F)c3)c(=O)n(Cc3ccc(F)cc3)c2n1,inconclusive: 123% [activator]
5,Cc1cccc(CNc2ccnc(-c3cccc(C#N)c3)n2)c1,inconclusive: -72% [inhibitor]
6,COc1ccc2[nH]cc(CCNc3nc(-c4ccc(N(C)C)cc4)nc4ccccc34)c2c1,inconclusive: -121% [inhibitor]
7,c1ccc(CNc2ncncc2-c2ccc3c(c2)OCO3)cc1,inactive: 7.28%
8,CCNc1ncc2ncc(=O)n(C3CC3)c2n1,inactive: -6.86%
9,CN(Cc1ccco1)c1ncncc1-c1ccccc1C(F)(F)F,inconclusive: -36% [inhibitor]
10,COc1cccc(Cn2c(=O)c(-c3cccs3)nc3cncnc32)c1,inactive: -4.4%
11,COc1ccc2[nH]cc(CCNc3ccnc(-c4ccc(N(C)C)cc4)n3)c2c1,inconclusive: -37.7% [inhibitor]
12,CCNc1ncc2nc(-c3ccccc3)c(=O)n(C)c2n1,inactive: -7.59%
13,c1ccc(CNc2ncncc2-c2cccnc2)cc1,inactive: -2.51%
14,O=c1c(-c2ccccc2)nc2cnc(N3CCOCC3)nc2n1C[C@H]1CCCO1,inconclusive: 34.5% [activator]
15,COc1ccccc1-c1cc(NCc2cnc(C)cn2)ncn1,inactive: 2.34%

# System: not listed separately
# Assay: Stat Signaling Pathway (AID 446);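 note: ME-180 cervical cancer cells given 40 pM IL-6 alongside compound; SIE-controlled beta-lactamase reporter measured as 460/530 nm FRET emission ratio; top concentration of the series differs between compounds; % is set by controls: 0 for no effect and ±100 for the full control effect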
# Settings: ME-180 (cervical carcinoma) SIE beta-lactamase reporter, IL-6 stimulated, 5 h; at 7.69 µM (top of the series) unless noted
# In short: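 FRET read-out (405 nm excitation, 460/530 nm emission) of a beta-lactamase reporter under a STAT-inducible element in ME-180 cervical carcinoma cells. Cells with compound receive 40 pM IL-6 for 5 h. Values are normalised to AC90 stimulation and AC90 JAK-inhibitor controls.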
row,Compound,"activity, negative = inhibition"
1,O=c1cnc2cnc(Nc3ccccc3)nc2n1Cc1cccs1,inconclusive: -102% [inhibitor]
2,O=c1c(-c2cccc(Cl)c2)nc2cncnc2n1C1CC1,inactive: -4.14%
3,Cc1cccc(CNc2ccnc(-c3cccc(C#N)c3)n2)c1,inconclusive: -59.1% [inhibitor]
4,COCCn1c(=O)c(C)nc2cnc(OC)nc21,inactive: -16.1%
5,COc1ccc2[nH]cc(CCNc3nc(-c4ccc(N(C)C)cc4)nc4ccccc34)c2c1,inconclusive: -41.7% [inhibitor]
6,COc1ccc2[nH]cc(CCNc3ccnc(-c4ccc(N(C)C)cc4)n3)c2c1,inconclusive: -32.5% [inhibitor]
7,CCNc1ncc2nc(-c3ccccc3)c(=O)n(C)c2n1,inactive: -9.07%

# Molecular target: Mitogen-activated protein kinase 10 (Mus musculus) (UniProt Q61831)
# Assay: JNK3 AlphaScreen Assay (AID 530);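 note: kinase came from lysate of stimulated human HepG2 cells; signal reports phosphorylation of biotinylated GST-cJun 1-79 at Ser73 with 10 µM ATP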; note: potency is the fitted concentration of half-maximal effect; for activity change, negative = inhibition: % is set by controls: 0 for no effect and ±100 for the full control effect
# Settings: JNK3 lysate, c-Jun phosphorylation; activity change, negative = inhibition: at 57.1 µM (top of the series)
# In short: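 Biotinylated GST-cJun(1-79) served as substrate for JNK3 in HepG2 lysates stimulated with IL-1beta and TNF-alpha. ATP was 10 uM final, pH 7.6. Ser73 phosphorylation was quantified by AlphaScreen (680 nm excitation).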
Compound,Potency,"activity change, negative = inhibition"
Cc1cccc(CNc2ccnc(-c3cccc(C#N)c3)n2)c1,"inconclusive [activator, partial curve]",–
CN1CCN(c2ncc3ncc(=O)n(CCC#N)c3n2)CC1,–,inactive: 0.436%
COc1ccc2[nH]cc(CCNc3nc(-c4ccc(N(C)C)cc4)nc4ccccc34)c2c1,"inconclusive [inhibitor, single point]",–
COc1ccc2[nH]cc(CCNc3ccnc(-c4ccc(N(C)C)cc4)n3)c2c1,"inconclusive [inhibitor, single point]",–

# Molecular target: 3',5'-cyclic-AMP phosphodiesterase 4B (Homo sapiens) (UniProt Q07343)
# Chain of UniProt Q07343 (Q07343 whole entry, looked up): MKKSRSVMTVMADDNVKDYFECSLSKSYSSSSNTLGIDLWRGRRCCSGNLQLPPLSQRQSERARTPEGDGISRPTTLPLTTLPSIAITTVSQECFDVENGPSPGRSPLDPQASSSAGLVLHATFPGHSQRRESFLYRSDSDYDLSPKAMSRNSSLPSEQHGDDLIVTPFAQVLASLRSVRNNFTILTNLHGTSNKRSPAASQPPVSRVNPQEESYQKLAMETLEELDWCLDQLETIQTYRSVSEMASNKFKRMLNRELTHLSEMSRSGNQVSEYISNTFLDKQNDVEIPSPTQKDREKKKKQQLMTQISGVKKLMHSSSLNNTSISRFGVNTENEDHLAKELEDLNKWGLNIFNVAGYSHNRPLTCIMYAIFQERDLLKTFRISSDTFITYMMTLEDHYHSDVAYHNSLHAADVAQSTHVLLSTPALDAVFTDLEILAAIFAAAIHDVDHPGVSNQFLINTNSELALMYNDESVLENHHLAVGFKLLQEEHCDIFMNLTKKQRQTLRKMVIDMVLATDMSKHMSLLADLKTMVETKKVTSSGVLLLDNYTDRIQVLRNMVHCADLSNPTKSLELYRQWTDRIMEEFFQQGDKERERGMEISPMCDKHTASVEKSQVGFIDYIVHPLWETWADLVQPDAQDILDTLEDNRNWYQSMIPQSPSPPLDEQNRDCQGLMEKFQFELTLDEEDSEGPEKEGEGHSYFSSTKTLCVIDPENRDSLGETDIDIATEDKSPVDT
# Assay: qHTS Assay for Inhibitors of PDE-IV (AID 607; active = well fitted activation curve with a large enough effect in the main read-out, with a control signal flat, not every such curve was filed as active; inconclusive = small, poorly fitted or top-dose-only effect, or effect the other way, or a change in a side signal; note: potency is the fitted concentration of half-maximal effect; for activation (PDE inhibition): % of control where 0% means no effect)
# Settings: HEK293 ACTOne CNG channel cells, membrane potential fluorescence; activation (PDE inhibition): at 22.9 µM (top of the series)
# In short: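 Cell-based read-out of cAMP via a modified cyclic nucleotide-gated channel and membrane potential dye (535/590 nm) in HEK293 cells expressing PDE4 endogenously. Compounds tested up to 22.9 uM final; 100 uM RO 20-1724 reference.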
Compound,Potency,activation (PDE inhibition)
O=c1cnc2cnc(Nc3ccccc3)nc2n1Cc1cccs1,"inconclusive [activator, single point]",–
Fc1ccc(Nc2ncncc2-c2ccccc2C(F)(F)F)cc1,"inconclusive [activator, single point]",–
Clc1ccccc1-c1cc(NCc2ccccc2)ncn1,"inconclusive [activator, partial curve]",–
COc1ccc(-c2nc3cnc(Nc4ccccc4)nc3n(C[C@H]3CCCO3)c2=O)cc1,"inconclusive [activator, partial curve]",–
Cn1cc(-c2nc3cnc(Oc4cccc(Cl)c4)nc3n(C3CC3)c2=O)c2ccccc21,"inconclusive [activator, single point]",–
CN1CCN(c2ncc3ncc(=O)n(CCC#N)c3n2)CC1,–,inactive: 7.83%
COc1ccc2[nH]cc(CCNc3nc(-c4ccc(N(C)C)cc4)nc4ccccc34)c2c1,"inconclusive [inhibitor, full curve, poor fit]",–
c1ccc(CNc2ncncc2-c2ccc3c(c2)OCO3)cc1,"inconclusive [rising, partial curve]",–
CCNc1ncc2ncc(=O)n(C3CC3)c2n1,"inconclusive [activator, single point]",–
N#Cc1cccc(-c2cncnc2NCc2cccs2)c1,"inconclusive [rising, partial curve]",–
COc1cccc(Cn2c(=O)c(-c3cccs3)nc3cncnc32)c1,"inconclusive [activator, single point]",–
CCNc1ncc2nc(-c3ccccc3)c(=O)n(C)c2n1,"inconclusive [activator, single point]",–
c1ccc(CNc2ncncc2-c2ccoc2)cc1,–,inactive: 10.4%
COc1cccc(Cn2c(=O)c(-c3cccc(C#N)c3)nc3cnc(OC)nc32)c1,"inconclusive [activator, partial curve]",–
